Experimental findings from paper PMC3958441, “Isl1 and Pou4f2 Form a Complex to Regulate Target Genes in Developing Retinal Ganglion Cells” (PLoS ONE, 2014) are described below.

Amino acid sequences for entries named in this document (tags omitted).
UniProt P31360: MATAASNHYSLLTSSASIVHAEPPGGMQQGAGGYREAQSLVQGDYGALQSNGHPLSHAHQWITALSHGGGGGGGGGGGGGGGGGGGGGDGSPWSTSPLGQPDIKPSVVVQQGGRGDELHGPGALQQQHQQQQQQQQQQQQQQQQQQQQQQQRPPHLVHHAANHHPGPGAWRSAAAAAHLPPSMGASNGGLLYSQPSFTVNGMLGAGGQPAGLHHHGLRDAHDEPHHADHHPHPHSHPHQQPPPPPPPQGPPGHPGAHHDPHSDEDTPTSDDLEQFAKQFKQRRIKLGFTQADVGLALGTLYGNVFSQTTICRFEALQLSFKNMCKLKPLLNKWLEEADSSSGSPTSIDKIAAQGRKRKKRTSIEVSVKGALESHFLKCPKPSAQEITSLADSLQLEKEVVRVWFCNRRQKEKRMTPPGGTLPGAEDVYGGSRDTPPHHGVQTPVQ

Read-outs that look alike come from different tables or passages of the source. No constants are given. Whether binding was seen depends on the method and setting. For some assays here: Binding seen in cells or lysates may run through a third protein. Some results given as binding are weak or reduced against the parent protein; the word gives no strength. For some assays here: Tags and fused reporters may be left off the sequences shown.

For assay [1], the target named is T1, GST-Isl1 fusion protein (mouse) (UniProt P61372).
T1 sequence: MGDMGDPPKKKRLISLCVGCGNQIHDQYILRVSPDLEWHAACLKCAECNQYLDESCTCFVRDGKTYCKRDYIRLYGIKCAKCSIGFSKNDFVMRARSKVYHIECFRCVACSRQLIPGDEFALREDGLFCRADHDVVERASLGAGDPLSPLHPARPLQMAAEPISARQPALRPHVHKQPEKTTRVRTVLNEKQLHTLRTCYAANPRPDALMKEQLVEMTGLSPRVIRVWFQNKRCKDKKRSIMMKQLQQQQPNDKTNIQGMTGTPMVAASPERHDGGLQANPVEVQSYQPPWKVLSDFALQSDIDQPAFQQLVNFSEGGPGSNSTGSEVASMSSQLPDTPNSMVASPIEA
As to the kind of experiment: pull-down; GST pull-down: about 20 ug of GST or GST-fusion E. coli lysate and 20 ug of non-fusion protein lysate in 125 mM Tris-HCl, 150 mM NaCl, pH 8.0, 4 C; glutathione magnetic beads, 6 washes; Western blotting.

The target of assay [2] is T2, Pou4f2, full-length, His-tagged (mouse, UniProt Q63934 1-411).
T2 construct: Pou4f2 (Brn3b), mouse, full-length coding region in pET-28a(+); 411 a.a; also called Brn3b; source: E. coli, in lysate (pull-down); purified on His SpinTrap columns (EMSA); not shown: His tag, C-terminal, kept
T2 sequence (looked up): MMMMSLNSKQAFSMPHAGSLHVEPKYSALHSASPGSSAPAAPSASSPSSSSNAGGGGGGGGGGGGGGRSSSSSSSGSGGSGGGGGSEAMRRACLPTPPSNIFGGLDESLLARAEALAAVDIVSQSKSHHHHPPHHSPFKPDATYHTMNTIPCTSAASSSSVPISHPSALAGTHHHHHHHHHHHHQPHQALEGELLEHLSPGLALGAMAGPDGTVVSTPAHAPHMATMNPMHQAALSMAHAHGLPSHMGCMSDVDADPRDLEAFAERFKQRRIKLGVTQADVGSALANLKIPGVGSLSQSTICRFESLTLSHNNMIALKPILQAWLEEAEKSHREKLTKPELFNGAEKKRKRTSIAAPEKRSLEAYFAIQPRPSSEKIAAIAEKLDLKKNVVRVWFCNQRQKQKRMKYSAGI
As to the kind of experiment: native gel or EMSA; EMSA with purified His-tagged proteins (200 ng each) and radiolabelled DNA probes (SBRN3, CBRN3; Ebf3 and Irx6 for Isl1 with Pou4f2D5); protein-protein complex read from a slower migrating ternary complex on DNA; 20 mM Tris-HCl pH 7.5, 0.05 M NaCl, 10 mM DTT, 1 mM EDTA, 5% glycerol, 4 C; both purified. A general note: In EMSA bound probe runs differently from free probe, usually more slowly.

Assay [3] addresses T3, GST-Pou4f2 fusion protein (mouse) (UniProt Q63934).
T3 sequence: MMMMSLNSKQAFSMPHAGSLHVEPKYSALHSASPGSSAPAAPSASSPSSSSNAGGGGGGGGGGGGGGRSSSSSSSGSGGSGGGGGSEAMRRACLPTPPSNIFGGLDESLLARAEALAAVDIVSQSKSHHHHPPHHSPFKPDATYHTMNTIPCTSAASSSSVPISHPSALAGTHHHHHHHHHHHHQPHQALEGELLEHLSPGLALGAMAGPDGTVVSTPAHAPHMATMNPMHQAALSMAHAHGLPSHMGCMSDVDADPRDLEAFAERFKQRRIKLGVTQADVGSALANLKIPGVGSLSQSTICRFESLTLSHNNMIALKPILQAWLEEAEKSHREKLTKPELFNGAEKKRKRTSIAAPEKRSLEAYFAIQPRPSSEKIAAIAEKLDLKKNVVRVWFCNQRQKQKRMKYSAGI
As to the kind of experiment: pull-down; GST pull-down: about 20 ug of GST or GST-fusion E. coli lysate and 20 ug of non-fusion protein lysate in 125 mM Tris-HCl, 150 mM NaCl, pH 8.0, 4 C; glutathione magnetic beads, 6 washes; Western blotting. On the technique in general: A western blot detects proteins with antibodies after separation by electrophoresis.

Assay [4] has as its target T4, Isl1 expressed in HEK 293 cells (mouse, UniProt P61372 1-349).
T4 sequence (looked up): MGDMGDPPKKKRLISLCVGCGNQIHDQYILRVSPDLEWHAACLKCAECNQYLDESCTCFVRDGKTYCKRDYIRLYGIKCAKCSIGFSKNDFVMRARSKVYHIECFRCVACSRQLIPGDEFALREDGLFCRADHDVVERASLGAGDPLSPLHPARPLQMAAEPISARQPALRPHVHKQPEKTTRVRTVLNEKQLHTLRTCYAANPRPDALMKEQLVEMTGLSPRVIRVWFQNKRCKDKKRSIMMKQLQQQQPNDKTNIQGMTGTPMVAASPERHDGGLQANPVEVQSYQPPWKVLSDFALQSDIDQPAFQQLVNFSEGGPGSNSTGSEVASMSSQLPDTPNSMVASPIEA
The experiment in a line: co-IP; HEK 293 cells co-expressing Isl1 and Pou4f2; lysate precipitated with rabbit anti-Isl1 or rabbit IgG and Protein A Dynabeads, 4 C; blot with goat anti-Pou4f2 and mouse anti-Isl1.

Assay [5] has as its target T5, Isl1, full-length, His-tagged (mouse, UniProt P61372 1-349).
T5 construct: Isl1, mouse, full-length coding region in pET-28a(+); 349 a.a; source: E. coli, in lysate (pull-down); purified on His SpinTrap columns (EMSA); not shown: His tag, C-terminal, kept
T5 sequence (looked up): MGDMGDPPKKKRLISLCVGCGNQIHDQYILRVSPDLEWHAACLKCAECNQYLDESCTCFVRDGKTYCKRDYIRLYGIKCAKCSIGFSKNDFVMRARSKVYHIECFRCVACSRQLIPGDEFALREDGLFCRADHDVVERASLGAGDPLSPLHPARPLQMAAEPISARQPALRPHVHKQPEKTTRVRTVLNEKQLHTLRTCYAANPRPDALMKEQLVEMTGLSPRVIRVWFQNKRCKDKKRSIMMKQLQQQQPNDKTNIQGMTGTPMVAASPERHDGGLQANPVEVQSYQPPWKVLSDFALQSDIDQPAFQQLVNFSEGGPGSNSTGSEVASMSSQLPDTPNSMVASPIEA
As to the kind of experiment: native gel or EMSA; EMSA with purified His-tagged proteins (200 ng each) and radiolabelled DNA probes (SBRN3, CBRN3; Ebf3 and Irx6 for Isl1 with Pou4f2D5); protein-protein complex read from a slower migrating ternary complex on DNA; 20 mM Tris-HCl pH 7.5, 0.05 M NaCl, 10 mM DTT, 1 mM EDTA, 5% glycerol, 4 C; both purified.

The target of assay [6] is T1, GST-Isl1 fusion protein (mouse). As to the kind of experiment: pull-down; GST pull-down: about 20 ug of GST or GST-fusion E. coli lysate and 20 ug of non-fusion protein lysate in 125 mM Tris-HCl, 150 mM NaCl, pH 8.0, 4 C; glutathione magnetic beads, 6 washes; Western blotting. This is another data set of the same source.

Turning to “Pou3f2, full-length, His-tagged (from UniProt P31360 1-445)”, in assay [1], the binding result is “binds”.

B1: Isl1D1 (a.a. 1-181) (domain or fragment, UniProt P61372 1-181)
chain: MGDMGDPPKKKRLISLCVGCGNQIHDQYILRVSPDLEWHAACLKCAECNQYLDESCTCFVRDGKTYCKRDYIRLYGIKCAKCSIGFSKNDFVMRARSKVYHIECFRCVACSRQLIPGDEFALREDGLFCRADHDVVERASLGAGDPLSPLHPARPLQMAAEPISARQPALRPHVHKQPEKT
Consider B1, for which the binding result in assay [2] and in assay [3] was “no binding” in each case.

B2: Pou4f2 expressed in HEK 293 cells (natural protein, mouse, UniProt Q63934 1-411, looked up)
chain: MMMMSLNSKQAFSMPHAGSLHVEPKYSALHSASPGSSAPAAPSASSPSSSSNAGGGGGGGGGGGGGGRSSSSSSSGSGGSGGGGGSEAMRRACLPTPPSNIFGGLDESLLARAEALAAVDIVSQSKSHHHHPPHHSPFKPDATYHTMNTIPCTSAASSSSVPISHPSALAGTHHHHHHHHHHHHQPHQALEGELLEHLSPGLALGAMAGPDGTVVSTPAHAPHMATMNPMHQAALSMAHAHGLPSHMGCMSDVDADPRDLEAFAERFKQRRIKLGVTQADVGSALANLKIPGVGSLSQSTICRFESLTLSHNNMIALKPILQAWLEEAEKSHREKLTKPELFNGAEKKRKRTSIAAPEKRSLEAYFAIQPRPSSEKIAAIAEKLDLKKNVVRVWFCNQRQKQKRMKYSAGI
Consider B2, for which the binding result in assay [4] is “binds”.

B3: Isl1D2 (a.a. 1-284) (domain or fragment, UniProt P61372 1-284)
chain: MGDMGDPPKKKRLISLCVGCGNQIHDQYILRVSPDLEWHAACLKCAECNQYLDESCTCFVRDGKTYCKRDYIRLYGIKCAKCSIGFSKNDFVMRARSKVYHIECFRCVACSRQLIPGDEFALREDGLFCRADHDVVERASLGAGDPLSPLHPARPLQMAAEPISARQPALRPHVHKQPEKTTRVRTVLNEKQLHTLRTCYAANPRPDALMKEQLVEMTGLSPRVIRVWFQNKRCKDKKRSIMMKQLQQQQPNDKTNIQGMTGTPMVAASPERHDGGLQANPVEV
For B3, the binding entry in assay [2] and in assay [3] was “no binding” in each case.

B4: Pou4f2D3 (a.a. 240-411) (domain or fragment, UniProt Q63934 240-411)
chain: AHGLPSHMGCMSDVDADPRDLEAFAERFKQRRIKLGVTQADVGSALANLKIPGVGSLSQSTICRFESLTLSHNNMIALKPILQAWLEEAEKSHREKLTKPELFNGAEKKRKRTSIAAPEKRSLEAYFAIQPRPSSEKIAAIAEKLDLKKNVVRVWFCNQRQKQKRMKYSAGI
With B4, the binding result in assay [5] and in assay [6] was “no binding” throughout.
